The values below come from PubChem BioAssay AID1508624 (National Center for Advancing Translational Sciences (NCATS), 2021).

Hit rate of the full screen: of about 48,000 compounds, about 120 (0.25%) were called active. About 4% were inconclusive and are not listed. Calls come from the whole dose curve; as a rule, active = well fitted activation curve with a large enough effect; inconclusive = small, poorly fitted or top-dose-only effect, or another doubt; inactive = no such curve, though single readings can be large or run the other way. This is one part of the list.

A short description of this assay: Primary qHTS for Identification of Small Molecule Activators of Huntingtin-Antisense Promoter Activity. Note: nearly all actives have a fitted effect of over 55% in size. The settings on record: HEK293 HTT-AS promoter firefly luciferase reporter, 24 h; series mostly up to 57.5 µM; activity change, positive = activation: at the top concentration. The essentials:
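Quantitative HTS used concentration series of up to 57.5 uM final on HEK293 luciferase reporter cells, 24 h at 37 degrees C. Readout was Dual-Glo firefly luminescence.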
(In general: In qHTS, concentration-response curves come from the screen itself.)
Take `O=C(NCc1ccccc1)c1ccc2c(c1)N(Cc1cccc(Cl)c1)C(=O)c1ccccc1S2(=O)=O`: the “activity change, positive = activation” value is inactive: -9.49%.

Regarding `Cc1ccc2nc(-c3ccc(Cl)c(NC(=O)c4cccc([N+](=O)[O-])c4C)c3)oc2c1`, the “activity change, positive = activation” value was inactive: 27.7%.

As for `Cc1ccccc1CN1C(=O)c2ccccc2Sc2ccc(C(=O)OCc3ccco3)cc21`, the “activity change, positive = activation” value is inactive: -23%.

Regarding `CCOC(=O)C1CCC(CN(Cc2c(Cl)cccc2Cl)S(=O)(=O)c2ccc(Cl)cc2)CC1` (stereo not drawn), the “activity change, positive = activation” value is inactive: -28.5%.

On to `CCn1ccc2cc(S(=O)(=O)N3CCC(C(=O)NCc4ccc(OC)cc4)CC3)ccc21`, for which the “activity change, positive = activation” value was inactive: -23.1%.

Turning to `COc1ccccc1CNC(=O)C1CCN(S(=O)(=O)c2c(C)noc2/C=C/c2cccs2)CC1`, the “activity change, positive = activation” value is inactive: -25.1%.

Consider `Cc1cc(=O)n(Cc2ccc(F)cc2Cl)c2c1c(C)nn2-c1ccccc1`, for which the “activity change, positive = activation” value was inactive: -7.52%.

As to `CCn1c(=O)c2sccc2n2c(CCCC(=O)N3CCN(c4cc(C)ccc4C)CC3)nnc12`, the “activity change, positive = activation” value is inactive: -6.36%.

`Cc1ccn2c(=O)c(C(=O)NCCc3ccc(S(N)(=O)=O)cc3)c(O)nc2c1`: the “activity change, positive = activation” value was inactive: -18.1%.

As to `COc1ccc(N2C(=O)CSC23C(=O)N(CC(=O)NCc2ccccc2)c2ccccc23)cc1` (stereo not drawn), the “activity change, positive = activation” value is inactive: -2.29%.

As to `Cc1ccc(NCc2ccccc2-c2nnc(-c3ccccc3Cl)o2)cc1Cl`, the “activity change, positive = activation” value is inactive: 7.07%.

`COc1ccc(S(=O)(=O)NC2(C(F)(F)F)NC(=O)N(CCc3ccc(OC)c(OC)c3)C2=O)cc1` (stereo not drawn): the “activity change, positive = activation” value was inactive: -3.97%.

As for `CS(=O)(=O)NCCc1csc2nc(-c3ccccc3)nn12`, the “activity change, positive = activation” value was inactive: -4.22%.

Turning to `COc1cc(C2C(C(=O)OC(C)C)=C(C)N=C3SCCC(=O)N32)ccc1OCc1ccccc1` (stereo not drawn), the “activity change, positive = activation” value was inactive: -32%.

For `COc1ccc(OC)c(NC(=O)c2c(NCc3ccc(C)o3)sc3c2CCCCC3)c1`, the “activity change, positive = activation” value was inactive: -0.386%.

On to `COc1cccc(NC(=O)N(Cc2cn(C)c3ccccc23)C2CCCCC2)c1`, for which the “activity change, positive = activation” value is inactive: -26.8%.

`COc1ccc(NC(=O)NCc2cccn2Cc2ccc(F)cc2)cc1OC`: the “activity change, positive = activation” value was inactive: -16.7%.

As to `Cc1cc(Nc2ccccc2Cl)n2nc(-c3ccco3)nc2n1`, the “activity change, positive = activation” value was inactive: -8.95%.

Turning to `Cc1cc(C)cc(NC(=O)CN2C(=O)CSc3ccc(S(=O)(=O)N4CCCC4)cc32)c1`, the “activity change, positive = activation” value was inactive: -21.2%.

As to `CCOc1ccc(NC(=O)c2c(NC(=O)c3cccc(C)c3)sc3c2CCC3)cc1`, the “activity change, positive = activation” value is inactive: -1.49%.

Consider `CCOC(=O)c1c(NC(=O)CSc2cn(CCNC(=O)c3ccccc3OC)c3ccccc23)sc2c1CCCC2`, for which the “activity change, positive = activation” value is inactive: -28.5%.

For the compound `O=C(NCC1CCN(Cc2cccc(F)c2)CC1)c1cc2ccc3cccnc3c2[nH]1`, the “activity change, positive = activation” value was inactive: -2.26%.

Regarding `CC1=C(c2ccc(C(C)C)cc2)S(=O)(=O)N=C1N1CCC(C(=O)NCc2ccco2)CC1`, the “activity change, positive = activation” value is inactive: -13.4%.

For the compound `COc1ccccc1N1CCN(S(=O)(=O)CCNC(=O)COc2ccc(F)cc2)CC1`, the “activity change, positive = activation” value is inactive: -16.4%.

`Cc1ccc(CNC(=O)Cn2c(=O)cc(-c3ccccc3)c3c(C)nn(C)c32)cc1`: the “activity change, positive = activation” value was inactive: -7.32%.

Consider `CCc1ccc(NC(=O)CC2C(=O)N(c3ccc(OC)cc3)C(=O)N2Cc2ccc(OC)cc2)cc1` (stereo not drawn), for which the “activity change, positive = activation” value was inactive: -17%.

With `Cc1c(C(=O)NCCc2ccccc2)cccc1-n1cnc2cccnc21`, the “activity change, positive = activation” value was inactive: 0.103%.

As for `C=C(c1ccc(C(=O)O)cc1)c1cc2c(cc1C)C(C)(C)CCC2(C)C`, the activity change, positive = activation entry was “inactive”.

As for `COc1ccc(CCNc2ncnc3c2c(-c2ccccc2)cn3-c2cccc(Cl)c2)cc1OC`, the “activity change, positive = activation” value is inactive: -45%.

With `COCCNC(=O)CN1C(=O)COc2ccc(S(=O)(=O)N3CCOCC3)cc21`, the “activity change, positive = activation” value was inactive: -0.243%.

With `CCc1ccccc1N(C)C(=O)Nc1cn(CC(C)C)c(=O)c2ccccc12`, the “activity change, positive = activation” value is inactive: -5.51%.

For `CCC1CCCCN1S(=O)(=O)c1ccc2c(c1)CCCN2C(C)=O` (stereo not drawn), the “activity change, positive = activation” value is inactive: -24%.

With `C=Cc1ccc(CSc2nc(-c3ccccc3C)nc3c2Cc2c(CO)cnc(C)c2O3)cc1`, the “activity change, positive = activation” value was inactive: -12.9%.

Turning to `CCn1cc(C(=O)OCC(=O)Nc2cccc(Cl)c2C)c(=O)c2ccc(C)nc21`, the “activity change, positive = activation” value was inactive: 1.1%.

On to `CCOc1ccc(CNC(=O)CCn2c(=O)c3cccn3c3cccnc32)cc1`, for which the “activity change, positive = activation” value is inactive: -15.5%.

As to `O=C(CSc1nc(=O)n(Cc2ccco2)c2c1CCC2)NCc1ccccc1Cl`, the “activity change, positive = activation” value was inactive: -8.6%.

`N#Cc1ccc(NC(=O)COCc2cc(-c3ccc4c(c3)OCO4)on2)cc1`: the “activity change, positive = activation” value is inactive: 5.55%.

With `COC(=O)c1scc(-c2ccc(C)cc2)c1S(=O)(=O)Nc1ccc(OC(F)(F)F)cc1`, the “activity change, positive = activation” value is inactive: -13.4%.

In the case of `Cc1cc(N2CCN(C)CC2)nc2ccc(NC(=O)Nc3ccc(Cl)cc3)cc12`, the “activity change, positive = activation” value is inactive: 3.82%.

On to `CCOc1ccc(N2CC(NC(=O)c3ccc(S(=O)(=O)N4CCOCC4)cc3)CC2=O)cc1` (stereo not drawn), for which the “activity change, positive = activation” value was inactive: -23.2%.

Consider `Cc1nc2ccn(Cc3cccnc3)c(=O)c2cc1C(=O)NCc1ccc(Cl)cc1`, for which the “activity change, positive = activation” value was inactive: -20.5%.

Consider `COc1ccccc1CNC(=O)CCCn1nc(C)c2c(C)n(-c3ccc(C)cc3)nc2c1=O`, for which the “activity change, positive = activation” value is inactive: -21.9%.

Turning to `COC(=O)c1c(SC)nc2ccccc2c1OCc1ccc(C)cc1C`, the “activity change, positive = activation” value is inactive: -25.8%.

For `Cc1ccc(-c2cc(C(F)(F)F)n3nc(C(=O)Nc4sc5c(c4C#N)CCC(C)C5)cc3n2)cc1` (stereo not drawn), the activity change, positive = activation is inactive: 4.32% [at 11.5 µM, percent change from vehicle, -100% = no light].

Consider `Cc1ccc2onc(CC(=O)Nc3cc(F)ccc3F)c2c1`, for which the “activity change, positive = activation” value is inactive: 16.6%.

Take `O=C(CSc1nnc2scc(-c3ccc(Cl)cc3)n12)Nc1ccccc1F`: the “activity change, positive = activation” value was inactive: -18.1%.

As to `CC(CNC(=O)c1ccc(CSc2nc3ccncc3n2Cc2cccc(F)c2)cc1)c1ccccc1` (stereo not drawn), the “activity change, positive = activation” value is inactive: -26.6%.

Turning to `CCOc1cccc(CC(=O)N2CCc3c([nH]c4ccccc34)C2c2ccc(C)cc2)c1OCC` (stereo not drawn), the “activity change, positive = activation” value is inactive: -23.8%.

Consider `Cc1ccc(C)c(-c2nn(CC(=O)Nc3cc(F)ccc3F)c(=O)c3c2CCCC3)c1`, for which the “activity change, positive = activation” value was inactive: -39.4%.

For the compound `COc1ccc(C(=O)Nc2ccc3c(c2)N(C2CCCC2)C(=O)c2ccccc2S3)cc1OC`, the “activity change, positive = activation” value was inactive: -37.2%.

Regarding `COc1cc(C(=O)Nc2ccc(Cl)c(-c3nc4ncccc4o3)c2)cc(OC)c1OC`, the “activity change, positive = activation” value was inactive: -24%.

For the compound `O=C(NCCc1ccccc1)C(=O)NCC(c1cccnc1)N1CCN(c2ccccc2)CC1` (stereo not drawn), the “activity change, positive = activation” value was inactive: -40.5%.

Turning to `O=C(Cn1cc(S(=O)(=O)N2CCN(c3ccccc3F)CC2)c2ccccc2c1=O)Nc1cccc(C(F)(F)F)c1`, the “activity change, positive = activation” value was inactive: -27.6%.

`Cc1ccccc1CNC(=O)CCCn1c(=O)c2cccn2c2ccccc21`: the “activity change, positive = activation” value is inactive: -9.79%.

Regarding `Cc1cccc2c1-c1sc(C(=O)N3CCN(c4ccc(F)cc4)CC3)cc1CO2`, the “activity change, positive = activation” value is inactive: 16.2%.

With `CC(=O)c1ccc(N2CCN(S(=O)(=O)c3cc(-c4onc(C)c4C)ccc3C)CC2)cc1`, the “activity change, positive = activation” value is inactive: -28.9%.

As for `CCc1ccccc1-n1c(SCC(=O)Nc2ccc(C)cc2)nc2n[nH]c(C)c2c1=N`, the “activity change, positive = activation” value is inactive: -47.9%.

As to `CC(C)(C)NCC(O)c1cc(O)cc(O)c1` (stereo not drawn), the “activity change, positive = activation” value was inactive: -13.8%.
